In this data set the test system is ATP. The experiment in a line: switch fluorescence ratio, 500 uM ATP over buffer (Cy3 cluster intensity, sum of 5 cycles each) (fold (ratio)); higher = stronger signal-on switching upon ATP binding; sequences stand for … in TCGTCGGCAGCGTCAGATGTGTATAAGAGACAGTTTTTTTTTTTTTTTTTTTTTTTTT…TC. The conditions noted are these: aptamer strand: ATP DNA aptamer (quencher-CACCTGGGGGAGTATTGCGGAGGAAGG + anchor), 100 nM annealed; ATP concentration: 500 uM; one replicate. A digest of the protocol: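 The quencher-labelled ATP aptamer, at 100 nM, was annealed to Cy3-labelled switching-strand clusters on a modified Illumina MiSeq flow-cell. The clusters were imaged in selection buffer, then after 15 min with 500 uM ATP at 22 °C, and this buffer/ATP cycle ran five times with NaOH stripping and re-annealing between runs. Per-cluster fluorescence ratios, summed target-cycle over summed buffer-cycle Cy3 intensity, were averaged per switch-domain sequence. Clusters outside 100-1000 RFU were excluded.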

Values marked as one replicate rest on one cluster of the flow cell; about a third of the high ones do not repeat.
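Further: ATP exposure 15 min at 22 °C before imaging.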

Regarding GGTCGCCGTT, the switch fluorescence ratio is 1.02.
ACGGAGAAAA: the switch fluorescence ratio amounted to 1.03.
As for TAGTGCATAT, the switch fluorescence ratio worked out at 1.01.
Take GTTTGGTTGT: the switch fluorescence ratio was 0.98.
For the sequence CCATCTGGAG, the switch fluorescence ratio amounted to 1.03.
Regarding ACTCACTGGA, the switch fluorescence ratio was 1.28.
With TAGGTTAGAT the figure was 1.03; with GGTTTTATAG, 0.999.
For GCGTGGGAAG, the switch fluorescence ratio is 1.01.
With CAGCGAGACA the figure was 1.27.
With TGAGTAGCTA the figure was 0.975; with AGAAACTTGC, 1.29; with TAACGTTGTT, 0.991.
In the case of AGGGGGCACA, the switch fluorescence ratio worked out at 0.989.
For the sequence GGAGGGTTCG, the switch fluorescence ratio is 0.973.
In the case of TAATCAAGT, the switch fluorescence ratio is 1.
As for TCAACAGAGG, the switch fluorescence ratio is 1.02.
TACCTTTGTC: the switch fluorescence ratio turned out to be 1.
Regarding ACACTGCGCG, the switch fluorescence ratio was 1.06.
CTGATGGTTG: the switch fluorescence ratio is 1.02.
For the sequence GACTGCGAGT, the switch fluorescence ratio turned out to be 1.02.
Take ATAATCGGAT: the switch fluorescence ratio was found to be 0.997.
For the sequence CTTCCTCGAG, the switch fluorescence ratio came to 2.36.
As to TGTATAGTTG, the switch fluorescence ratio is 0.985.
With GAGTGTATAG the figure was 1.03; with CCAGGGTGAG, 1.26; with AACTGCTTA, 0.997.
Regarding GTTCAGAGCC, the switch fluorescence ratio was 1.
Turning to CTACCTACGC, the switch fluorescence ratio is 2.64.
In the case of TTCGCCTAGT, the switch fluorescence ratio is 0.994.
Regarding TTTACATTCT, the switch fluorescence ratio came to 1.03.
Regarding TTATCCCGGG, the switch fluorescence ratio worked out at 1.01.
With AACTTTCTAA, the switch fluorescence ratio amounted to 1.01.
With AGATGTCTGT, the switch fluorescence ratio was found to be 0.999.
Consider ACGCGGTTCC, for which the switch fluorescence ratio is 1.06.
With ATTTGTACAG, the switch fluorescence ratio was 1.02.
With TAGGGTCTG the figure was 1.01; with ACACTTTTCA, 1.09.
For TAACTCATAT, the switch fluorescence ratio amounted to 1.01.
For AATGTATACA, the switch fluorescence ratio amounted to 1.04.
CAGGATATGA: the switch fluorescence ratio turned out to be 0.982.
With TCGCAATCCG the figure was 1.95; with CATATGGTTC, 1.07.
Regarding AGCAGATA, the switch fluorescence ratio was determined as 0.99.
Turning to AAGCTGGGCG, the switch fluorescence ratio was found to be 1.05.
As for GACTAGGTAG, the switch fluorescence ratio came to 1.03.
Regarding AACCGCTCGG, the switch fluorescence ratio worked out at 0.971.
For the sequence AGTGATTCT, the switch fluorescence ratio worked out at 1.04.
With AATAGGTCTC the figure was 1.04; with CGCATCGGGA, 1.02.
TGCCCCGGGG: the switch fluorescence ratio turned out to be 1.02.
With CTGAACCAAT the figure was 1.61; with TAAATGGAGT, 0.97.
In the case of TGAGCAACGT, the switch fluorescence ratio stood at 1.5.
For GGTAGTGAGG, the switch fluorescence ratio turned out to be 1.
For AGAAAGATTG, the switch fluorescence ratio was 0.973.
Regarding AACATGAACA, the switch fluorescence ratio was determined as 0.99.
ATTCCACGGG: the switch fluorescence ratio was 1.2.
On to TGTGGGGCGT, for which the switch fluorescence ratio came out at 1.11.
On to CTACTGGCAA, for which the switch fluorescence ratio was determined as 2.64.
With GTGTGTCATT the figure was 1.01; with GGAACTGACT, 1.07.
Turning to GCGAAGGCCT, the switch fluorescence ratio was determined as 1.11.
As for TAGTCGTATG, the switch fluorescence ratio stood at 1.01.
Consider GCGGGTATTT, for which the switch fluorescence ratio came to 0.987.
In the case of CATCGTCGG, the switch fluorescence ratio amounted to 1.
With GGTGCGTGGA the figure was 0.967.
With CAGATGTGCT, the switch fluorescence ratio was 0.996.
GATAGGCAGA: the switch fluorescence ratio amounted to 1.02.
Turning to AGTTCTATAG, the switch fluorescence ratio stood at 0.967.
With TGTCACGGGG, the switch fluorescence ratio is 0.949.
Turning to GATATAGTT, the switch fluorescence ratio came to 0.988.
As for CGAGGAAGCC, the switch fluorescence ratio turned out to be 0.952.
Take ATCATTCGC: the switch fluorescence ratio was 1.06.
CGGTAGGGTG: the switch fluorescence ratio was found to be 0.952.
Consider GCACCGTGCT, for which the switch fluorescence ratio came to 0.93.
Turning to CAGGCAGTGT, the switch fluorescence ratio amounted to 0.985.
Consider CGAATACGGA, for which the switch fluorescence ratio was found to be 1.1.
As to GAGGGTCATT, the switch fluorescence ratio is 1.03.
As to TAGGAAGTTG, the switch fluorescence ratio was determined as 1.01.
Turning to ATGCTTACTT, the switch fluorescence ratio worked out at 1.05.
Take TGATGAACTA: the switch fluorescence ratio amounted to 1.01.
GGTCCGTTGA: the switch fluorescence ratio was determined as 1.03.
AATTACGCAG: the switch fluorescence ratio was 0.97.
With TATTCTGATG the figure was 0.99.
With AACCTAATG the figure was 1.05; with GAAGTTAGGA, 0.98; with TGATATGAGC, 0.946.
Turning to TTACCCTTTT, the switch fluorescence ratio stood at 1.
Take ACAATGGGAC: the switch fluorescence ratio amounted to 1.05.
For AATACTTCCC, the switch fluorescence ratio came to 3.02.
With TTCCGATTTT the figure was 1.02.
As for AGGGGATGTA, the switch fluorescence ratio stood at 0.983.
With TTAATCTTAC the figure was 1.21.
GGCCCTTGTA: the switch fluorescence ratio came out at 0.97.
As for GTTCTCGTCT, the switch fluorescence ratio amounted to 1.04.
With CTAGATCATA the figure was 0.984; with CGTACTGAG, 1.06; with CCTGTGTTGG, 1.03.
With GGTTCCTTGG the figure was 1.02; with TTAACAACGG, 1.1; with CGGTGCGCCA, 1.
Take AAGATGGTGA: the switch fluorescence ratio was found to be 0.995.
Consider TAAGTAAGAA, for which the switch fluorescence ratio was 0.974.
Regarding ACCTCTGGTG, the switch fluorescence ratio was found to be 1.42.
As to CGGGCTAGCG, the switch fluorescence ratio turned out to be 0.979.
Turning to AGCTTACTG, the switch fluorescence ratio came to 1.06.
With TCGGTCGCCC, the switch fluorescence ratio was 0.998.
As to CTGCCTCTCA, the switch fluorescence ratio was determined as 1.01.
In the case of GCGATGGGT, the switch fluorescence ratio turned out to be 1.
On to AACTATCCCA, for which the switch fluorescence ratio was 1.16.
With ATGCTGCGCT the figure was 1; with AATATAATCG, 0.966.
On to CGATGGATTC, for which the switch fluorescence ratio stood at 1.14.
Turning to TACAAGAGA, the switch fluorescence ratio turned out to be 0.976.
Turning to TGGCAAAGCC, the switch fluorescence ratio worked out at 1.01.
With CGGGTTGCTA the figure was 0.999; with GCTGAGTGCG, 1.02; with ATCGACGTAG, 0.994.
With GGCAGGCACA, the switch fluorescence ratio was determined as 1.03.

The record behind these values is the supplement of paper PMC10126150.
